Laboratory results published in the supplement of paper PMC11417369.
± gives the standard deviation of the averaged measurements. The list shows a part of the results.

Tested on: PfAP2-I AP2 domain 3 (GST-tagged)
Experiment: gcPBM binding intensity (ln(normalized median fluorescence intensity)); higher = stronger DNA binding
In short: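 Each value is the highest Masliner-normalised natural-log median intensity across replicate spots of either orientation of a probe. The probes were primer-extended double-stranded 36-bp intergenic genomic sequences on an Agilent 4 × 180k array, alongside negative controls, exposed for 1 h to GST-tagged P. falciparum DNA-binding domains expressed in E. coli. Bound protein was picked up with Alexa488 anti-GST antibody and scanned at 488 nm.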

Sequence	gcPBM binding intensity (ln)
TCTTTCCTTATTAAAACACACAAATACATTATTTAA [CACACA_site2147]	7.84 ± 0.46
CCTTTTTCTACTTTCTCACACATATTAAGAATTATA [CACACA_site5621]	8.29 ± 0.51
CTATATATAACCCATGTGCACTTTTTATGTACAATA	10.24 ± 0.092
TGGGAAAAAATATATGCACACCCCCCAAAAAAAAAA [CACACA_site8696]	11.5 ± 0.52
AATTCTTTATTATATGCACACGTACATATAATATAT [CACACA_site8621]	9.27 ± 0.18
AAAAAATGTTATAAAAGTACATAATTTATCTACCAT [XGTACX_site3035]	7.46 ± 0.47
TTTTTATATAATTTAACACACATTTCATATAAAAAA [CACACA_site3103]	8.07 ± 0.42
ATGTGAAAATAAGACACACTCAAAAGGTTTATATTA [CACACA_site4595]	7.67 ± 0.43
ATATACTGTATGAAAGCACACATACTTATTACTAAC [CACACA_site9384]	8.19 ± 0.68
TAACTTTGGAGGAGCTGTACGATTATTTTGATCCTT [XGTACX_site2514]	7.64 ± 0.63
AAAAAATTTCAAATAACACACACTAATATAAATATG [CACACA_site6783]	7.74 ± 0.52
TTTAAAAAATAATATTGTACTATTCTCCCAATTTCT [XGTACX_site7079]	7.24 ± 0.51
ATACATTCTAATACGTGTACATATATATATATATAT [XGTACX_site1881]	9.41 ± 0.59
AATAATATTAACACACGTACAAAAGCAAACAACCAA [XGTACX_site7410]	8.5 ± 0.49
TTTATATTATTATATCTTATTAATTATTTATCATTT [TGCATGCA_negctrl_site73]	7.28 ± 0.58
ATAAAACAAAAACACACACACATACACAAAAAAAAA [CACACA_site3848]	8.31 ± 0.43
CATCTTAAATAAGAACGTACATTTTTTTTGATGAGA [XGTACX_site3462]	7.46 ± 0.44
AAGACAAAACAAAGAAGTACATATATATATATATAT [XGTACX_site4067]	9.45 ± 0.38
GGAGACTTTGTACAAACACACACATGAACACAATAT [CACACA_site8376]	8.14 ± 0.61

Sequence	gcPBM binding intensity (ln)
TCTTCACCACGTGGAAGTACATAAAAAGATACACAA [XGTACX_site4747]	8.26 ± 0.63
ATGTATATATTTATGTGTACTTAAATTTTTTTTTGT [XGTACX_site8179]	7.86 ± 0.16
TTTTAATATATAGAGTAACAAATTTGTCTATTAATA [CACACA_negctrl_site1495]	7.5 ± 0.58
TAATTTAAAAATGAACATATATATGTATGTAAATAT [TGCATGCA_negctrl_site135]	8.03 ± 0.61
TATACCACCCGATATACACACTTGTAGACATCTTTT [CACACA_site4268]	7.96 ± 0.47
TATGGGTTTATATAGGTGCAATATATGTATATATAA	11.2 ± 0.59
TATATAGTTTATATTTGTACATATAGACATTTATAA [XGTACX_site6414]	7.53 ± 0.45
ACAAAACTCTTTAATTGTACAAATATAATATAAAAA [XGTACX_site5690]	7.74 ± 0.63
AGCAATATTTATTAAAGTACGTAAAAAAAATTCTCA [XGTACX_site6550]	7.6 ± 0.48
AACCATTGGGAAAGGGTGCACATATATATATATATA	10.8 ± 0.11
ATATATATATAATATTGTACATAGTAGACATCACAC [XGTACX_site4649]	8.89 ± 0.11
TCTTATTATAAAAGGAGTACATCAATTAGATGTTCC [XGTACX_site8465]	7.41 ± 0.53
CAAAGCATAGTATGATGTACAAATGTTCCTATAATA [XGTACX_site8642]	7.48 ± 0.65
TTATGTTTATACACTACACACATTATTCATAAAAAA [CACACA_site4637]	8.11 ± 0.3
TATATATGTATAAGAGTGCATATGCATATATGTATA [GTGCAC_site9692]	9.85 ± 0.014
TAAAATATGGAAATCACACATTTATTAAAATATATA [CACACA_site4623]	7.2 ± 0.4
GATTATATATTAAAAAGTACTTTATAAATACTTCTA [XGTACX_site8992]	7.72 ± 0.47
CATATACATTGTATATGTACATATATATATATATAT [XGTACX_site3772]	9.21 ± 0.59
TGATGCAAAATATATACACACATATATATATATATA [CACACA_site3052]	9.26 ± 0.32

Sequence	gcPBM binding intensity (ln)
TAATATACTTAATACACACACGAATATTTATAAATA [CACACA_site6675]	7.82 ± 0.37
GATTCATCTAAACACCGTACATATTATATATATATA [XGTACX_site6030]	9.035 ± 0.078
AAACTCAACTTATATACACACAATCTTTTTTTTTTA [CACACA_site29]	7.57 ± 0.69
CCCCTCGAAATAATTTGTACGAATATATTGTCTGTA [XGTACX_site8308]	9.12 ± 0.28
AGTATATTAAAAAATACACACGTATTATATCTACAT [CACACA_site8844]	7.55 ± 0.55
GTTCATAAATTAAACACACACACACCGCTGGATACC [CACACA_site5779]	8.49 ± 0.34
TATTGTATATAATAAACACACAATATTAAAAATATA [CACACA_site1057]	7.4 ± 0.52
TATTTAAAAAACACATGTACGAGTATTATATATAAA [XGTACX_site6654]	7.73 ± 0.52
ACATGCAACCATTCGGGTACAGAAATAAATATATAC [XGTACX_site4174]	7.99 ± 0.62
CTTTTTCGCATGAAAAGTACATGAAATATATTACAT [XGTACX_site8971]	7.7 ± 0.31
AATAACTTTTTAAACACACACACATATAAATAAATA [CACACA_site6196]	7.96 ± 0.49
GGTTATAACGCACATGCACACGTAAATAAATATTAT [CACACA_site9277]	10.8 ± 0.84
TAAATTTTAATAAATACACACAAATTTTAATTCTAT [CACACA_site6039]	7.51 ± 0.44
ATATTAAAATACAGTGCATGTTAAAAATATATTATA [TGCATGCA_site977]	9.095 ± 0.035
TTATAACATCTTAAATGTACAAATATGTGCTTATTT [XGTACX_site7285]	7.91 ± 0.36
TAAAAAAAAAACATCTGTACCAATTTTTATGTATAA [XGTACX_site5196]	7.46 ± 0.57
AATAAAAGTTCACCTGTACACACATATATATATGTA [CACACA_site8500]	7.96 ± 0.57
ATGTATTTATATACTTGTACGTAAGATGTATTATAT [XGTACX_site908]	7.86 ± 0.53
ATTGGAAAATATGTTATATATATATATATATATATG [CACACA_negctrl_site116]	8.53 ± 0.42
